# Hit rate of the full screen: of about 410,000 compounds, about 530 (0.13%) were called active. The inconclusive results got no clear call from the source; some entries with a clear call stand among them for comparison. The call rests on the fitted dose curve; in most records, active means well fitted inhibition curve with a large enough effect; inconclusive means small, poorly fitted or top-dose-only effect, or another doubt; inactive means no such curve, though single readings can be large or run the other way. Where the call is inconclusive, the potency comes from a doubtful curve fit.
# Experiment: qHTS of GLP-1 Receptor Inverse Agonists: Cytotox Screen
# Details: HEK293 cAMP-luciferase reporter cells, luminescence, 24 h; activity change, negative = inhibition: at 38.3 µM (top of the series) unless noted
# In short: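 Quantitative HTS format, 1536 wells, 200 cells/uL seeded. Compounds: 23 nL, 24 h, 37 °C. Detection: luciferase reagent, luminescence at 12 min RT; decreased signal taken as cytotoxic.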
# On the % scale 0 is the no-effect control and ±100 the full control effect; potency means the concentration at half of the fitted maximal effect.
SMILES,"activity change, negative = inhibition",Potency
C=C1C(=O)O[C@@H]2[C@H]3O[C@]3(C)CC/C=C(\C)CC[C@@H]12,inactive: -7.52%,–
O=C(Cn1c(=O)n(-c2ccccc2)c(=O)c2oc3ccccc3c21)Nc1ccccc1,–,"inconclusive: 11.2 µM [inhibitor, single point]"
CC1=CSC2=NC(=O)/C(=C\c3cccn3-c3ccc([N+](=O)[O-])cc3)C(=N)N12,–,"inconclusive: 11.2 µM [inhibitor, single point]"
Cc1ccc(C(C(=O)NC2CCCC2)N(Cc2cccs2)C(=O)CNC(=O)c2cccs2)o1 (stereo not drawn),–,"inconclusive: 31.6 µM [inhibitor, partial curve, poor fit]"
COCCn1c(C)cc(C(=O)CSc2n[nH]c(N)n2)c1C,inactive: -11.3%,–
C=CCNC(=O)Nc1ccc(OCC)cc1,–,"inconclusive: 2.24 µM [inhibitor, full curve, poor fit]"
CC(=O)c1ccc(NC(=O)CCSCCC(=O)Nc2ccc(C(C)=O)cc2)cc1,inactive: -3.79%,–
COc1ccc(CCN2C(=O)NC(NS(=O)(=O)c3ccccc3)(C(F)(F)F)C2=O)cc1OC (stereo not drawn),–,"inconclusive: 28.2 µM [inhibitor, single point]"
O=C(CC1SC(N2CCCCC2)=NC1=O)Nc1ccc(C(=O)NCc2ccccc2)cc1 (stereo not drawn),inactive: -5.22%,–
CN(CC(=O)N1CCc2ccccc21)S(=O)(=O)c1ccc(Cl)cc1,inactive: 3%,–
CC1=Nc2ccccc2/C1=C/c1c(C)[nH]c2ccccc12,–,"inconclusive: 10 µM [inhibitor, partial curve, poor fit]"
CCc1ccc(Nc2nnc(SCC(=O)Nc3sccc3C(N)=O)s2)cc1,–,"inconclusive: 10 µM [inhibitor, single point]"
O=C1/C(=C\c2ccc(O)cc2)SC(=S)N1/N=C/c1ccc(O)cc1,inactive: -15.3%,–
COc1cc([N+](=O)[O-])cc(/C=N/N(CCC#N)C(C)=O)c1O,–,"inconclusive: 10 µM [inhibitor, partial curve]"
Cn1c(CNC(=O)CNC(=O)c2cccc(F)c2)cc(=O)n(C)c1=O,–,"inconclusive: 3.55 µM [inhibitor, full curve, poor fit]"
Cc1nn2c(nc1=O)NNC2(C)C(C)(C)C (stereo not drawn),–,"inconclusive: 25.1 µM [inhibitor, single point]"
C#CCOCCOCCOCCNc1nc(N2CCN(C(=O)[C@H]([C@@H](C)CC)n3cc([C@@H](N)CO)nn3)CC2)nc(N2CCN(C(=O)[C@H]([C@@H](C)CC)n3cc([C@@H](N)Cc4ccc(O)cc4)nn3)CC2)n1,–,"inconclusive: 3.98 µM [inhibitor, full curve, poor fit]"
Cc1nn2c(COc3ccc(NC(=O)c4ccccc4Cl)cc3)nnc2c2ccccc12,–,"inconclusive: 28.2 µM [inhibitor, single point]"
O=C(Nc1ccc(-c2cc3ccccc3oc2=O)c(Cl)c1)c1cccnc1,–,"inconclusive: 2.24 µM [inhibitor, partial curve, poor fit]"
COc1cc(NC(=O)c2cc(OC)c(OC)c(OC)c2)c(OC)cc1NC(=O)CN1CCCCC1,–,"inconclusive: 11.2 µM [inhibitor, single point]"
Cc1cccc(NC(=S)NC2CCCCCC2)c1C,–,"inconclusive: 28.2 µM [inhibitor, single point]"
O=C(CCC(=O)Nc1cc(C(F)(F)F)ccc1Cl)N/N=C\c1cc([N+](=O)[O-])ccc1O,–,"inconclusive: 4.47 µM [inhibitor, partial curve]"

SMILES,"activity change, negative = inhibition",Potency
O=C(O)COc1ccccc1/C=N/NC(=O)c1cc2ccccc2cc1O,inactive: -6.8%,–
C=C(C)CNC(=S)N/N=C1\CCCCc2ccccc21,–,active: 3.98 µM
S=C(Nc1ccccc1)Nc1nccs1,–,"inconclusive: 0.631 µM [inhibitor, full curve]"
C=CCOc1ccccc1CN1CCC(Cc2ccccc2)CC1,–,"inconclusive: 2.24 µM [inhibitor, single point]"
O=C(NNc1cccc(Cl)c1)c1cccnc1Cl,inactive: -33.7%,–
CC(C)CCN1CCC(CN2C(=O)C(=O)NC[C@@H]2CC(C)C)CC1,inactive: 1.78%,–
Cc1c(NC(=O)c2ccc3c(c2)OCO3)cccc1-c1nc2ccccc2s1,–,"inconclusive: 12.6 µM [inhibitor, single point]"
CC(=O)Nc1ccc(-c2ccnc3c2CC(C)(C(=O)Nc2cccc(Oc4ccccc4)c2)O3)cc1 (stereo not drawn),–,"inconclusive: 11.2 µM [inhibitor, single point]"
COc1ccc(N2CCN(S(=O)(=O)CCNC(=O)COc3cccc(OC)c3)CC2)cc1,–,inactive
COc1cc(/C=C2\CC/C(=C\c3ccc(OCCO)c(OC)c3)C2=O)ccc1OCCO,–,"inconclusive: 12.6 µM [inhibitor, single point]"
CC(C)Oc1ccc(CNC(=O)Nc2ccc3c(c2)N(C)C(=O)c2ccccc2S3)cc1,–,"inconclusive: 7.94 µM [inhibitor, partial curve, poor fit]"
Cc1ccc(S(=O)(=O)CNC(=S)c2ccc3ccccc3c2)cc1,–,"inconclusive: 22.4 µM [inhibitor, single point]"
COc1ccc(CCNC(=O)CSc2nc3ccsc3c(=O)n2Cc2ccccn2)cc1OC,inactive: 2.43%,–
Cc1[nH]n(-c2ccccc2)c(=O)c1/C=N/N1C(=O)c2cccc3cccc(c23)C1=O,–,"inconclusive: 28.2 µM [inhibitor, single point]"
CCOC(=O)c1cc(-c2ccccc2)n(-c2cccc(C(=O)Nc3cccc(C)c3)c2)c1C,inactive: -10.7%,–
CC1CN(S(=O)(=O)c2cc(C(=O)NCc3ccncc3)ccc2Cl)CC(C)O1 (stereo not drawn),inactive: 4.5%,–
Nc1nonc1-c1noc(N2CCCCC2)n1,inactive: -8.63%,–
CN(C)c1ccc(N=Nc2ccccc2C(=O)OCC(=O)NC2CCCC2)cc1,–,"inconclusive: 14.1 µM [inhibitor, partial curve, poor fit]"
COc1cccc(Nc2nc(NCCO)c3ccccc3n2)c1,–,"inconclusive: 10 µM [inhibitor, single point]"
CCCc1nc2ccccc2c(C(=O)OCC(=O)NCc2ccco2)c1CC,–,"inconclusive: 31.6 µM [inhibitor, partial curve, poor fit]"
S=c1[nH]nc(-c2ccc(Cl)cc2)n1Cc1ccccc1,inactive: -6.07%,–

# Reference: PubChem BioAssay AID624418 (National Center for Advancing Translational Sciences (NCATS), 2012)
